Laboratory results taken from PubChem BioAssay AID1479 (National Center for Advancing Translational Sciences (NCATS), 2009).
Out of some 280,000 compounds screened, about 820 (0.29%) were called active. Inconclusive means that the source gave no clear call. Such entries were picked first, then a sample of the others. Calls come from the whole dose curve; as a rule, active = well fitted curve in either direction with a large enough effect; inconclusive = small, poorly fitted or top-dose-only effect; inactive = flat fitted curve, though single readings scatter. Potencies of inconclusive entries are left out as doubtful fits.

test: Total Fluorescence Counterscreen for Inhibitors of the Interaction of Thyroid Hormone Receptor and Steroid Receptor Coregulator 2; conditions: TRb/SRC2 Texas Red total fluorescence interference; series mostly up to 106 µM; fluorescence change, negative = quenching: at the top concentration
Source text: NIH Molecular Libraries Probe Production Network [MLPCN]
NIH Chemical Genomics Center [NCGC]
Assay Provider: R. Kip Guy, St. Jude Children's Research Hospital
Thyroid receptor (TR) regulates many homeostatic processes including basal metabolism, cardiovascular function, body weight, and lipid trafficking. TR modulators are potential therapeutics for obesity and hyperlipidemias but current thyroid analogs have undesirable side effects, particularly cardiac stimulation. To identify inhibitors that specifically prevent the interaction of TR with the steroid receptor […] 2 (SRC2), a fluorescence polarization assay was screened. This assay detects interaction of the ligand-binding domain of human TRb with a Texas Red labeled SRC2 peptide, corresponding to a 20 amino acid region of the nuclear receptor interaction domain (Arnold et al., 2006). Total fluorescence (555 nm excitation and 632 nm emission) was measured to identify potential fluorescent and light absorbing compounds. Such compounds may be artifacts that interfere with the fluorescence polarization assay.
Arnold, L. A.; Estebanez-Perpina, E.; Togashi, M.; Shelat, A.; Ocasio, C. A.; McReynolds, A. C.; Nguyen, P.; Baxter, J. D.; Fletterick, R. J.; Webb, P.; Guy, R. K. A high-throughput screening method to identify small molecule inhibitors of thyroid hormone receptor coactivator binding. Sci STKE 2006, p 13.
NCGC Assay Protocol Summary:
For screening, 5 uL/well 0.6 uM TRb and 20 nM SRC2 Texas Red in protein buffer (20mM Tris hydrochloride, 100mM NaCl, 10% glycerol, 1mM EDTA, 0.01% NP-40, 1mM DTT, 1uM T3 and 5% DMSO) was dispensed into black solid 1536-well plates (Grenier) using a solenoid-based dispenser. Following transfer of 23 nL compound or DMSO vehicle by a pin tool, the plates were centrifuged 15 s at 1000 RPM and incubated 5 hr at ambient temperature. The plates were read by an Envision (Perkin Elmer) to detect fluorescence polarization of SRC2 Texas Red (555 nm excitation and 632 nm emission). Data were normalized to unbound (all components except TRb) and bound SRC2 Texas Red controls. Total fluorescence (TF) was calculated as follows: TF = S + 2P where S and P are fluorescence readings in the parallel and perpendicular channels, respectively.
Keywords: NIH Roadmap, MLPCN, MLI, MLSMR, qHTS, NCGC, qHTS, thyroid hormone receptor, steroid receptor coactivator, fluorescence polarization
% is set by controls: 0 for no effect and ±100 for the full control effect; potency is the fitted concentration of half-maximal effect; tags give direction and shape of the fitted curve or compound fluorescence and quenching.

| Structure (SMILES) | Potency | fluorescence change, negative = quenching |
| --- | --- | --- |
| COc1ccccc1CNC(=O)CSc1ncc2c(n1)-c1ccccc1N(Cc1ccc(C)cc1)S2(=O)=O | inconclusive [falling, full curve, poor fit] | – |
| COc1ccc(N2CCN(c3ncnc4nc[nH]c34)CC2)cc1 | – | inactive: -1.46% |
| CCCOc1ccc(-c2cccc(NS(=O)(=O)c3cc(OC)ccc3OC)c2)nn1 | – | inactive: -5.51% |
| CCN(CC)c1cccc(OCC(=O)N(C)CCC#N)c1 | inconclusive [fluorescent, partial curve] | – |
| CCOC(=O)c1c(N)sc(C(=O)N2CCOCC2)c1C | – | inactive: -4.84% |
| O=C(OCC1OC(OC(=O)c2cc(O)c(O)c(OC(=O)c3cc(O)c(O)c(O)c3)c2)[C@@H](OC(=O)c2cc(O)c(O)c(OC(=O)c3cc(O)c(O)c(O)c3)c2)C(OC(=O)c2cc(O)c(O)c(OC(=O)c3cc(O)c(O)c(O)c3)c2)C1OC(=O)c1cc(O)c(O)c(OC(=O)c2cc(O)c(O)c(O)c2)c1)c1cc(O)c(O)c(OC(=O)c2cc(O)c(O)c(O)c2)c1 (stereo partly drawn) | active: 15.8 µM [quencher] | – |
| COc1ccc(CCNC(=O)Cn2c(=O)c3cccn3c3ccc(F)cc32)cc1OC | – | inactive: 8.85% |
| COc1ccc(-c2nn(C)c3sc(C(=O)N4CCN(c5cc(Cl)ccc5C)CC4)cc23)cc1OC | – | inactive: -0.117% |
| CCC(CO)Nc1nc(CN2CCCCC2)nc2scc(-c3ccccc3)c12 (stereo not drawn) | inconclusive [quencher, full curve] | – |
| CCN(CC)c1ccc2cc(-c3nnc(-c4cccc(Cl)c4)o3)c(=O)oc2c1 | inconclusive [falling, partial curve, poor fit] | – |
| CCCCN(C)CCNC(=O)Cn1ncc2c3ccccc3n(CCC)c2c1=O | inconclusive [quencher, full curve] | – |
| COc1ccc(C)cc1N(C)C(=O)c1sc2nc3n(c(=O)c2c1C)CCCCC3 | inconclusive [falling, partial curve, poor fit] | – |
| CCOC(=O)c1cccc(NC(=O)CC(c2ccc(F)cc2)N2Cc3ccccc3C2=O)c1 (stereo not drawn) | – | inactive: 0.455% |
| CCOC(=O)c1c(C)oc2c1c(C=NCCO)c(O)c1ccccc12 | – | inactive: 0.327% |
| O=c1c(O[C@@H]2O[C@H](CO)[C@@H](O)[C@H](O)[C@H]2O)c(-c2ccc(O)cc2)oc2cc(O)cc(O)c12 | – | inactive: -7.01% |
| COc1ccc(-c2nn(CCC(=O)O)cc2/C=C2\SC(N)=NC2=O)cc1 | inconclusive [falling, partial curve, poor fit] | – |
| CC(=O)N1CCCc2cc(S(=O)(=O)N(C)CC(=O)Nc3ccc(F)c(Cl)c3)ccc21 | inconclusive [falling, partial curve, poor fit] | – |
| CN(C)c1ccc(C(=C2C=CC(=[N+](C)C)C=C2)c2c(O)c(S(=O)(=O)[O-])cc3cc(S(=O)(=O)O)ccc23)cc1 | inconclusive [quencher, partial curve] | – |
| O=C(CSc1nnc(CNc2ccccc2)o1)N1CCc2ccccc21 | – | inactive: 0.252% |
| CC(C)c1ccc(NS(=O)(=O)c2ccc3[nH]c(=O)ccc3c2)cc1 | inconclusive [falling, full curve, poor fit] | – |
| Cc1cc(C)c(NC(=O)Cn2c(=O)n(CCC(=O)NCc3ccc4c(c3)OCO4)c(=O)c3ccccc32)c(C)c1 | inconclusive [quencher, full curve] | – |

| Structure (SMILES) | Potency | fluorescence change, negative = quenching |
| --- | --- | --- |
| O=C(CSc1ncnc2sc3c(c12)CCCC3)c1ccco1 | – | inactive: -5.31% |
| CC(=O)c1ccc(NC(=O)CCc2c(C)nn(-c3ccc4nncn4n3)c2C)cc1 | inconclusive [falling, full curve, poor fit] | – |
| CCCCCN(CCCCC)C(=O)[C@H](CCC(=O)O)NC(=O)[C@H](Cc1ccc(OP(=O)(O)O)cc1)NC(C)=O | inconclusive [falling, full curve, poor fit] | – |
| CC(C)/C=N\NC(=O)CCCCC(=O)N/N=C/C(C)C | inconclusive [falling, full curve, poor fit] | – |
| COc1cc(-c2noc(-c3ccc(NCCc4ccccc4)c([N+](=O)[O-])c3)n2)cc(OC)c1OC | – | inactive: -1.96% |
| N#CC(C#N)=c1ccc2c(c1)NC1(CCCCC1)N=2 | active: 44.7 µM [fluorescent] | – |
| COc1cccc(NC(CNS(=O)(=O)c2ccc(C)cc2)c2ccccc2)c1 (stereo not drawn) | – | inactive: -0.803% |
| COc1ccc2c(c1OC)C(=O)OC2Nc1nc(-c2cc3ccccc3oc2=O)cs1 (stereo not drawn) | inconclusive [falling, partial curve, poor fit] | – |
| COc1cccc(C(=O)Nc2nnc(S(=O)(=O)N3CCOCC3)s2)c1 | inconclusive [quencher, partial curve] | – |
| Cc1ccc(NC(=O)c2cc(-c3ccco3)nc3ccccc23)cc1S(=O)(=O)N1CCOCC1 | inconclusive [quencher, partial curve] | – |
| C1=C(CCNc2ncnc3c2[nH]c2ccccc23)CCCC1 | inconclusive | – |
| COc1ccc(-n2c(=O)c3c4c(sc3n3c(SC(C)C)nnc23)COC(C(C)C)C4)cc1 (stereo not drawn) | inconclusive [falling, full curve, poor fit] | – |
| C=CCn1c(N)c(C(=O)Nc2cccc(C)c2)c2nc3ccccc3nc21 | – | inactive: -0.326% |
| CCOC(=O)c1ccn(-c2nc(-c3cccc(OC)c3)cc(C(F)(F)F)n2)n1 | active: 0.0022 µM [quencher] | – |
| CC(=O)c1sc(NC(=O)COc2ccc(C)c(C)c2)nc1C | inconclusive [rising, single point] | – |
| CCOC(=O)CS(=O)(=O)c1nc(-c2ccc(F)cc2)cc(C(F)(F)F)n1 | – | inactive: -2.79% |
| C=CCN1C(=O)C(Cc2ccccc2)SC1=Nc1ccc(C(=O)O)cc1 (stereo not drawn) | inconclusive [quencher] | – |
| CCN(CC)S(=O)(=O)c1ccc(N=N/C(C(C)=O)=C(/C)O)cc1 | – | inactive: -0.947% |
| COc1ccc(COc2cc(-c3cccc(OC)c3)nc3ccc(NC(=O)c4ccc(OC)cc4)cc23)cc1 | inactive | – |
| Cc1ccccc1-n1c(SCC(=O)c2ccccc2)nnc1-c1ccc(F)cc1 | inconclusive [falling, full curve, poor fit] | – |
| COc1ccc(CCNC(=O)c2ccc3nc(-c4ccco4)c(-c4ccco4)nc3c2)cc1OC | active: 11.2 µM [quencher] | – |

| Structure (SMILES) | Potency | fluorescence change, negative = quenching |
| --- | --- | --- |
| CC(C)S(=O)(=O)C1=NSC2=NC(=O)/C(=C\c3ccc(-c4ccccc4)o3)C(=N)N21 | inconclusive [quencher, partial curve] | – |
| O=C1NC(NS(=O)(=O)c2ccccc2)(C(F)(F)F)C(=O)N1CCc1ccccc1 (stereo not drawn) | inconclusive [falling, partial curve, poor fit] | – |
| CCOC(=O)CCc1c(C)c2cc3c(c(C)c2oc1=O)OCN(CCc1ccccc1OC)C3 | inconclusive [falling, full curve, poor fit] | – |
| O=C1c2ccccc2-c2onc3ccc(N4CCCC4)c1c23 | active: 44.7 µM [fluorescent] | – |
| COc1ccc(S(=O)(=O)Nc2ccccc2-c2nnn(CC(=O)Nc3ccccc3OC)n2)cc1 | – | inactive: 0.888% |
| CCOc1cc(C#N)c(NC(=O)c2ccc(OC)c(S(=O)(=O)N3CCCCC3)c2)cc1OCC | inconclusive [falling, full curve, poor fit] | – |
| C/C(=N\NC(=O)c1ccccc1[N+](=O)[O-])c1c(O)cc(C)oc1=O | – | inactive: -0.118% |
| COc1cccc(-c2cc(=O)c3cc(NC(=O)c4ccc(C)cc4)ccc3[nH]2)c1 | inconclusive [quencher, partial curve] | – |
| COC(=O)c1ccc(OS(=O)(=O)c2ccc(NC(C)=O)cc2)cc1 | – | inactive: -0.828% |
| Cc1ccc2nc(-c3cccc(NS(C)(=O)=O)c3)cc(-c3ccccc3)c2c1 | active: 0.1 µM [quencher] | – |
| Cc1ccc(CNC(=O)c2ccc(CN3CC(=O)N4CCCCC4C3=O)cc2)cc1 (stereo not drawn) | – | inactive: 5.4% |
| Cc1ccc2oc(-c3ccc(C)c(NC(=O)/C=C/c4ccc(Cl)cc4)c3)nc2c1 | inconclusive [quencher, full curve] | – |
| CC(N)COC(=O)C(CCCCN)NC(=O)Cc1c(-c2ccc3ccccc3c2)[nH]c2c1ccc1ccccc12 (stereo not drawn) | – | inactive: -15.1% |
| O=C1OC(C(=O)Nc2cc(C(F)(F)F)ccc2Cl)Cc2ccccc21 (stereo not drawn) | inconclusive [falling, full curve, poor fit] | – |
| COc1ccc(N2CCN(C(=O)CCc3c(C)nc4cc(-c5ccc(OC)cc5OC)nn4c3C)CC2)cc1 | inconclusive [falling, full curve, poor fit] | – |
| O=C(NCCc1nc2ccccc2[nH]1)c1cc([N+](=O)[O-])cc([N+](=O)[O-])c1 | inconclusive [falling, full curve, poor fit] | – |
| Cc1ccc(Nc2nnc(-c3ccc(C)c(S(N)(=O)=O)c3)c3ccccc23)cc1 | inconclusive [falling, partial curve, poor fit] | – |
| O=C(Nc1nnc(S(=O)(=O)N2CCc3ccccc32)s1)c1cccc(Cl)c1 | inconclusive [falling, full curve, poor fit] | – |
| CN(Cc1ccccc1)C(=O)CSc1nc(-c2ccc(F)cc2)cc(C(F)(F)F)n1 | inconclusive [falling, full curve, poor fit] | – |
| CC(C)c1ccc(OCC(=O)NCC(c2ccc(Cl)cc2)N2CCOCC2)cc1 (stereo not drawn) | – | inactive: -39.9% |
| Cc1c(C(=O)Nc2cccc(-c3nc4ccccc4s3)c2)oc2ccc(F)cc12 | inconclusive [falling, full curve, poor fit] | – |
